Measurements published in publication PMC4336329 (PLoS ONE, 2015).
About 2,200 (0.71%) of roughly 310,000 compounds showed an effect of 50% or more. The effect is printed as a negative number. Some of the results follow.

These molecules were tested against human ether-à-go-go-related gene (hERG) potassium channel (human, UniProt Q12809) (assay: primary screen, population patch clamp on CHO cells stably expressing hERG).
Chain of human ether-à-go-go-related gene (hERG) potassium channel (Q12809 whole entry, looked up): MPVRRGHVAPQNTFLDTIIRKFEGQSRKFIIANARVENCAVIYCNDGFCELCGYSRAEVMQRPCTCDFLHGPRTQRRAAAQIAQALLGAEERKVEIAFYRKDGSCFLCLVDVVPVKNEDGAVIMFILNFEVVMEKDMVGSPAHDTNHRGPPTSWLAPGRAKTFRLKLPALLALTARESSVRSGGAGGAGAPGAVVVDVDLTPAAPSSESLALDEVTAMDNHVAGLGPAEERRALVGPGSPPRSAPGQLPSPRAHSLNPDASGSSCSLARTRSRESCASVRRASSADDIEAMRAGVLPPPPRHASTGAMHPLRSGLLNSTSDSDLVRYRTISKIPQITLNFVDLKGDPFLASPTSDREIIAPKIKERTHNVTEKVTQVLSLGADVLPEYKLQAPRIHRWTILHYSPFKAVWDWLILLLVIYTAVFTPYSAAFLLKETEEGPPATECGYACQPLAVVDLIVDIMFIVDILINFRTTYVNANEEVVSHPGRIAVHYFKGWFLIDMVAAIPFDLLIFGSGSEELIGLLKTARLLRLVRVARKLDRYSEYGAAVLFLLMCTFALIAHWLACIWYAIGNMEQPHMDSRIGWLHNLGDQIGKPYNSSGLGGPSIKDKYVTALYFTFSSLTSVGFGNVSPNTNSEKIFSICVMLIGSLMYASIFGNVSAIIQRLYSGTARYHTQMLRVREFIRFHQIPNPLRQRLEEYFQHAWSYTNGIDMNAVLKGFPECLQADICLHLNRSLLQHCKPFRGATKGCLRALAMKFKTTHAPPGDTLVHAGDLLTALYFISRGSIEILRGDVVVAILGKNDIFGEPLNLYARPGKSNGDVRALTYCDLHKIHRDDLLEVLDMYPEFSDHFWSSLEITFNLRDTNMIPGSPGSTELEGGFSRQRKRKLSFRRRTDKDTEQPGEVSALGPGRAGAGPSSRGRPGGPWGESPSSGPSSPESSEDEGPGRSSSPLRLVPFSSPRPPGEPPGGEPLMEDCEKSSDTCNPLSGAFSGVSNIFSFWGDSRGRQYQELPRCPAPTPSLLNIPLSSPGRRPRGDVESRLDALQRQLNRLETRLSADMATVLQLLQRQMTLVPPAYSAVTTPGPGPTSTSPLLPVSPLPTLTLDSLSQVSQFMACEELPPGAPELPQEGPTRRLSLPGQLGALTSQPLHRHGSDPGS

Row | Compound | hERG current change (%, negative = inhibition) at 1uM
1 | CC1(C)CC2CC(C)(CN2CC(O)COc2ccccc2)C1.O=C(O)C(=O)O (centres unmarked) | -0.829%
2 | O=C(NNC(=O)c1cc(Cl)ccc1O)c1cccc(S(=O)(=O)N2CCOCC2)c1 | 14.2%
3 | C=CCNc1ccc(N2C(=O)CCCC2=O)cc1[N+](=O)[O-] | 19.6%
4 | COc1ccc(OC)c(CC(=O)Nc2cc(S(=O)(=O)N3CCCCC3)ccc2C)c1 | 2.36%
5 | CCCCOc1ccc(/C=C/C(=O)OCC(=O)N2CC(=O)Nc3ccccc32)cc1OCC | 15.7%
6 | CCc1nn(CC(=O)NCCCN2CCCC2=O)c(=O)c2cc3sccc3n12 | 3.94%
7 | Nc1nccc(/C=C/c2c(F)cccc2Cl)n1 | 5.43%
8 | C/C(=N\Nc1ccc(Cl)cc1)c1c(O)cc(C)oc1=O | 8.19%
9 | Cc1nn(Cc2ccc(Cl)cc2)c(C)c1NC(=O)C(c1ccccc1)c1ccccc1 | -12.3%
10 | O=[N+]([O-])c1ccccc1OCCOCCOc1cccc2cccnc12 | -0.887%
11 | CC(C)(C)NC(=O)COC(=O)c1cc(S(=O)(=O)N2CCCCC2)ccc1N1CCOCC1 | 4.54%
12 | Cc1oc2ccc(OCc3ccccc3Cl)cc2c1C(=O)O | 0.264%
13 | CCCCC(CC)CNC(=O)C1C2C=CC(C2)C1C(=O)O (centres unmarked) | 7.2%
14 | C/C(=N\NC(=O)c1cccs1)c1ccc2ccccc2c1 | 15.5%
15 | CCn1c(O)c(/C=C2\C=Nc3ccccc32)sc1=Nc1ccccc1 | 14.1%
16 | O=C(Nc1ccccc1)c1ccc(S(=O)(=O)N2CCCCC2)cc1 | -23.1%
17 | Cc1ccc(-n2c(N)c(C(=O)N3CCOCC3)sc2=S)cc1 | -19.4%
18 | O=[N+]([O-])c1cc(-n2cccc2)ccc1N1CCOCC1 | -3.61%
19 | CC(C(=O)NC1C(=O)N2C(C(=O)O)=C(CSc3nnnn3C)CSC12)n1cc(Br)cn1 (centres unmarked) | 15.1%
20 | Cc1c(/C=N/n2cnnc2)c2ccccc2n1C | 8.91%
21 | Cc1cc(C)c2cc(CN(CC3CCCO3)C(=S)NCc3ccco3)c(=O)[nH]c2c1 (centres unmarked) | 4.08%
22 | CN(C(=O)CSc1nc(N)c2c3c(sc2n1)CSC(C)(C)C3)c1ccccc1 | -0.518%
23 | COc1ccc(-n2c3c(cc(C(=O)NNc4ccccc4)c2=O)C(=O)CC(C)(C)C3)cc1 | 9.11%

Row | Compound | hERG current change (%, negative = inhibition) at 1uM
24 | COCCCNC(=O)Cn1nnc(-c2ccc(NC(=O)c3cccnc3)cc2)n1 | 1.04%
25 | COc1ccc(Oc2coc3cc(OC(=O)c4cccs4)ccc3c2=O)cc1 | 11.5%
26 | C=C(C)CN1C(=O)C(=O)N(CC(=C)C)C1=O | 15.1%
27 | O=C(Nc1ccccc1C(=O)NCc1ccco1)NC1CCCCC1 | 0.709%
28 | CN(CCOC(=O)c1ccc2c(c1)OCCO2)C(C)(C)C.Cl | 18.1%
29 | O=Cc1cn(CCOc2ccccc2F)c2ccccc12 | 11%
30 | Cc1nn(C)c(C)c1NC(=O)C12CC3CC(CC(C3)C1)C2 | 6.27%
31 | Oc1ccccc1C1=NCCNC(C(F)(F)F)=C1 | 8.12%
32 | COc1ccc(-c2cn(CCO)c(CCN)n2)cc1 | 7.7%
33 | Cc1cc(C)cc(NS(=O)(=O)c2ccc(-c3cnc(C4CC4)o3)cc2)c1 | 14.1%
34 | O=C(O)/C(=C\c1ccco1)NC(=O)c1cccc2ccccc12 | -0.725%
35 | O=S1(=O)N=C(Nc2ccc(N3CCOCC3)cc2)c2ccccc21 | -10.3%
36 | Cc1cccc(C)c1OCC(=O)Nc1ccncc1 | 11.5%
37 | COCCNC(=O)C(c1ccc(Cl)cc1)N(C(=O)CCC(=O)Nc1ccccn1)C1CCCC1 (centres unmarked) | 8.06%
38 | COc1ccc(CNn2c(-c3ccccc3F)nc3ccccc3c2=O)cc1OC | 20.2%
39 | CC(=O)N1CCN(C2c3cccc4cccc(c34)C2NS(=O)(=O)c2ccccc2)CC1 (centres unmarked) | 7.67%
40 | Cc1ccc(N(CC(=O)NCc2ccncc2)S(C)(=O)=O)cc1 | 15.4%
41 | CCn1c(C)c(C)c2cc(C(=O)NCCN3CCOCC3)ccc21 | 0.601%
42 | COc1ccccc1CNC(=O)C(C)n1nc(C)n2c(cc3occc32)c1=O (centres unmarked) | -2.98%
43 | Cc1ccccc1C(=O)N(C)c1ccccc1C(=O)NCc1ccccc1 | -8.7%
44 | O=c1nccc(N/N=C/c2ccccc2)[nH]1 | 10.9%
45 | O=[N+]([O-])c1ccc(C(O)C[n+]2ccccc2)cc1.[I-] (centres unmarked) | 15%
46 | CC(NS(C)(=O)=O)C(c1cccs1)N1CCN(c2ccc(F)cc2)CC1 (centres unmarked) | 4.48%

Row | Compound | hERG current change (%, negative = inhibition) at 1uM
47 | COc1cc(OC)c2nc(C)c3c(c2c1)N(c1ccc(O)cc1)CC3 | -57.2%
48 | O=c1[nH]c(C2CCN(S(=O)(=O)c3ccc4c(c3)OCCO4)CC2)nc2c1nnn2Cc1ccc(F)cc1 | 22%
49 | OC1(c2ccc(Cl)cc2)CCN(Cc2c[nH]c3ccccc23)CC1 | -27.6%
50 | COC(=O)c1c(NC(=O)C(=O)N2CCCCC2)sc2c1CC(C)(C)OC2 | 2.15%
51 | Cc1ccc(-c2nnn(CC(=O)NC3CCN(Cc4ccccc4)CC3)n2)cc1 | 6.56%
52 | COc1ccc(-c2oc3ccc(N4CCOCC4)cc3c2C#CCO)cc1 | 11.2%
53 | Cl.O=C(CN1CCC(NC(=O)c2ccccc2Cl)CC1)NCc1ccco1 | 8.06%
54 | Cc1cc(C)c(NC(=O)CSc2nc3ccc(NC(=O)CSc4nnnn4-c4ccccc4)cc3s2)c(C)c1 | 10.5%
55 | CC(C)N(CC(O)COc1ccc(CC(N)=O)cc1)CC(O)COc1ccc(CC(N)=O)cc1 (centres unmarked) | 13%
56 | CCOc1ccccc1OCC(O)CNC (centres unmarked) | 2.98%
57 | CC(C)CC(=O)Nc1ccc(C(=O)COC(=O)Cc2n[nH]c(=O)c3ccccc23)cc1 | -0.765%
58 | CNC(=O)c1cn(-c2ccc(Cl)cc2)c(=O)c2ccccc12 | 8.27%
59 | Cc1ccsc1CCNC(=O)C1CCC(=O)N(CCc2cccc(F)c2)C1 (centres unmarked) | -17.8%
60 | Cc1cc(S(=O)(=O)Nc2ccc(C(=O)NCC(c3ccccc3)N(C)C)cc2)ccc1F (centres unmarked) | -8.56%
61 | CCn1c(=O)c2sccc2n(Cc2ccc(C)cc2)c1=O | 19.5%
62 | O=S(=O)(c1ccc(-c2csc(-c3cccnc3)n2)cc1)N1CCCCC1 | 12.3%
63 | C=CCOc1c(Cl)cc(CNCCC)cc1Cl.Cl | -0.476%
64 | O=C(c1ccc(F)cc1F)N1CCN(c2ccccn2)CC1 | 6.22%
65 | CCN(Cc1ccccc1)C(=O)CSc1ncn[nH]1 | 17.3%
66 | O=S(=O)(N/N=C\c1c(F)cccc1Cl)c1ccc(Cl)cc1 | 8.01%
67 | COc1ccccc1NC(=S)N(Cc1ccco1)Cc1cc2cc(C)c(C)cc2[nH]c1=O | 1.04%
68 | Cc1cc(C)c[n+](CC(=O)c2ccc(-c3ccccc3)cc2)c1.[Br-] | 2.96%
69 | CCn1c(C)csc1=NC(=O)c1ccccc1O | 8.67%

Row | Compound | hERG current change (%, negative = inhibition) at 1uM
70 | O=C1c2ccc3c4c(ccc(c24)C(=O)N1c1ccc2ccccc2c1)CC3 | 4.92%
71 | COc1ccc(Cl)cc1NC(=O)c1ccco1 | 4.11%
72 | O=C(NC(C(=O)N/N=C/c1ccccn1)c1n[nH]c(=O)c2ccccc12)c1ccccc1 (centres unmarked) | 0.335%
73 | CCn1c(SCC(=O)Nc2cccc(F)c2)nc2c(c1=O)SC(C)C2 (centres unmarked) | -11%
74 | Cc1cccc(Oc2nc3ccccn3c(=O)c2/C=C(\C#N)C(=O)NC2CCS(=O)(=O)C2)c1 (centres unmarked) | 10.2%
75 | O=C1C2CCN(CC2)C1Cc1ccccc1O (centres unmarked) | 12%
76 | CCC(C)(CC(=O)Nc1nccs1)c1ccccc1 (centres unmarked) | 14.5%
77 | COc1cc2sc(C)nc2c2ccccc12 | 13%
78 | COc1cc(C)ccc1OCc1cc(C(=O)N2C[C@H]3CC[C@H]2C3)no1 | 10.9%
79 | COc1ccc(CNC(=O)CN(Cc2ccc(OC)cc2)C(=O)c2csnn2)cc1 | -7.34%
80 | CCOc1cccc(=O)c2c(C)n(CC(=O)c3ccccc3)c(C)c12 | 8.74%
81 | O=C(c1ccc(Cl)c(NC2=NC3CS(=O)(=O)CC3S2)c1)N1CCN(c2ccccc2)CC1 (centres unmarked) | 15.4%
82 | CCOc1ccc(NC(=O)CN(C)C(=O)c2cc([N+](=O)[O-])ccc2N2CCCCC2)cc1OCC | 8.33%
83 | COc1ccc(NC(=O)CSc2nnnn2Cc2ccccc2)cc1 | 4.53%
84 | CC1CC(OCC(O)C[N+]2(C)CCOCC2)CC(C)(C)C1.[I-] (centres unmarked) | 15%
85 | CC(=O)c1ccc(NC(=O)CCn2c(=O)oc3ccccc32)cc1 | 17.8%
86 | C=CCn1c(SCC(=O)NC2(C#N)CCCCC2)nnc1-c1ccncc1 | 3.96%
87 | C=CCn1c(CCSCc2ccccc2)n[nH]c1=S | 10.2%
88 | COc1cccc(N2CCN(C(=O)/C=C/c3ccco3)CC2)c1 | -2.01%
89 | Cc1nc2cc(C(=O)O)ccc2s1 | 12.1%
